{"source": "patent US7271245B2", "about": "“Methods and compositions for inhibition of metastasis” (The Scripps Research Institute, priority 2004, dated 2007)", "molecules": {"B1": {"name": "Bc-15: patient derived human scFv antibody against activated αvβ3 with RGD motif in CDR-H3; cDNA ATCC PTA-6304 (protein)", "scFv": "MAQVQLVQSGAEVKEPGSSVKVSCKASGGTFSSYAIYWVRQAPGQGLEWMGWINPDSGDTNSAQQFQGRVTMTRDTSISTAYMELSRLRSDDTAMYYCARPPRGDGPDYWGQGTLVTVSSGGGGGS[letters of about 100 residues not shown]RGLGGLVDYKDDDDK"}}, "key": {"tumor cell integrin αvβ3": {"biological_target": "T1, tumor cell integrin αvβ3 (Homo sapiens, UniProt P05106+P06756)", "T1 construct": "Primary metastatic cells from blood samples of stage IV breast cancer patients (BCM1, BCM2, BMS) were isolated; endogenous in cells; host or cells: BMS cells (primary metastatic breast cancer cells from patient blood)", "T1 sequence (P06756 31-889 limits assumed)": "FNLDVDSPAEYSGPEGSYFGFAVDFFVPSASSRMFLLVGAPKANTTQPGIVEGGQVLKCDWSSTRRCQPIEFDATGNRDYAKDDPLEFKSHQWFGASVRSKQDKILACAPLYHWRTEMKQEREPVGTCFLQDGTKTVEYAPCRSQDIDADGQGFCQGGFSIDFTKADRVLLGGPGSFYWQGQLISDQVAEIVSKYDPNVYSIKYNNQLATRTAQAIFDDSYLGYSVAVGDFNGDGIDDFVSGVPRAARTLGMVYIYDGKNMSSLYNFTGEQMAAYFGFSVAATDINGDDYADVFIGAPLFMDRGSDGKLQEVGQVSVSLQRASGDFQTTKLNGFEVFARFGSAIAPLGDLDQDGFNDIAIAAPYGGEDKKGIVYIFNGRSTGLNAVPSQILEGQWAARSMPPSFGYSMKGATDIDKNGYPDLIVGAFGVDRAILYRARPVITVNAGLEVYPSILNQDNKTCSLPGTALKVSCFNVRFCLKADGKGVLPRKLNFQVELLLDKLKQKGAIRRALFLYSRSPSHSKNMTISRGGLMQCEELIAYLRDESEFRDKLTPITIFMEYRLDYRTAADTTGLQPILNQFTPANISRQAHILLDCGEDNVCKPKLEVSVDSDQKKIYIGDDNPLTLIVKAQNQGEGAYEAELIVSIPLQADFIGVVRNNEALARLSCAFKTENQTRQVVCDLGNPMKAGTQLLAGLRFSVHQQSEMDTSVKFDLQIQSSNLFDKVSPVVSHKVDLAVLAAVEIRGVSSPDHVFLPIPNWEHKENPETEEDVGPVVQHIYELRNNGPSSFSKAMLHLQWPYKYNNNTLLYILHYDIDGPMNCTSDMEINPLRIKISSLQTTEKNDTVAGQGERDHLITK", "T1 sequence (P06756 891-1048 partner limits assumed)": "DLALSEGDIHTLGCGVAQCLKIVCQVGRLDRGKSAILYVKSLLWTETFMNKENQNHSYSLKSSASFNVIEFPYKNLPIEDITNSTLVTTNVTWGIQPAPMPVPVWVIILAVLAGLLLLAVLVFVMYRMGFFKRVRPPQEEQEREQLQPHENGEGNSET", "T1 sequence (P05106 27-788)": "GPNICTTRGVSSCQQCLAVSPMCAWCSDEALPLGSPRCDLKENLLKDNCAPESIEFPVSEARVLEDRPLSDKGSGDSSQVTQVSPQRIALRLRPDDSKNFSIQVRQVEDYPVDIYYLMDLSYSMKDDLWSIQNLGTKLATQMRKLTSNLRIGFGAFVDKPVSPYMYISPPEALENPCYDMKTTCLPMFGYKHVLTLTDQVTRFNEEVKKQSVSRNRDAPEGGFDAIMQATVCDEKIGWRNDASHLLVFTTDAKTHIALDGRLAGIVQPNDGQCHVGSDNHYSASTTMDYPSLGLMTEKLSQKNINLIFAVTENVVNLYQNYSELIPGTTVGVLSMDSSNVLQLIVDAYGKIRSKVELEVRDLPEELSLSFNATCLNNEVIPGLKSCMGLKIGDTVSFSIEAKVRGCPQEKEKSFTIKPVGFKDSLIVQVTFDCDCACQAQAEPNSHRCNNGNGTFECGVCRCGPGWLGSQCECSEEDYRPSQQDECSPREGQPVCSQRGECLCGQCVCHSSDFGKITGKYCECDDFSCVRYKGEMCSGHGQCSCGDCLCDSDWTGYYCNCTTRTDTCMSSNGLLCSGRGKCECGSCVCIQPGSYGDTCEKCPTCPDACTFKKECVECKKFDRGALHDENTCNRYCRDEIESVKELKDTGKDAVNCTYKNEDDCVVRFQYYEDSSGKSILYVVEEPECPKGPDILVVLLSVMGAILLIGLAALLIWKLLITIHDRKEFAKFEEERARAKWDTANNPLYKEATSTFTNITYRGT", "assay": "Flow cytometry, scFv binding to BMS cells in fresh human plasma", "details": "saturable binding", "procedure": "FIG. 4. Patient derived ligand mimetic scFvs Bc-12 and Bc-15 against activated αvβ3 are internalized and bind to breast cancer cells in human plasma and affect breast cancer survival. Flow cytometric analysis with human metastatic breast cancer cells (BMS) isolated from a patient blood sample. All binding and washing steps were done in fresh human plasma prepared from blood anticoagulated with 50 nM PPACK.\nFlow cytometry. scFv binding to human tumor cells was analyzed by flow cytometry, initially with cloned scFv phage and then with purified scFv protein. Per sample, 2×10^5 tumor cells were blocked with goat serum and incubated either with scFv phage (2-5×10^10) (1 h at RT) followed by mouse anti-M13 mAb (Serotec) (30 min on ice) and goat FITC-anti mouse (Pierce) (30 min on ice), or with purified scFv (1.25 to 40 μg/ml, routinely 10 to 15 μg/ml) (45 min on ice), followed by mouse anti-FLAG mAb M2 (Sigma) (30 min on ice) and goat FITC-anti mouse. […] All samples were counter stained with propidium iodide (PI) and analyzed on a Becton-Dickinson FACScan, with live gate set to exclude PI positive cells.\nAntimetastatic activity of scFv antibodies against activated αvβ3 inhibit hematogenous breast cancer metastasis in vivo. […] The antibodies bound the cells in a saturable manner with half maximal binding measured at 40 nM scFv (1 μg/ml) (FIG. 4)."}, "integrin αvβ3": {"system": "integrin αvβ3", "assay": "Flow cytometry, scFv binding to human tumor cell panel", "procedure": "FIGS. 1A, 1B, 1C. Patient derived scFvs Bc-12 and Bc-15 recognize tumor cell integrin αvβ3 in a cation and activation dependent manner. Flow cytometric analyses in TBS with or without 1 mM Ca^2+, 1 mM Mg^2+, or 0.2 mM Mn^2+ as indicated. Binding of soluble scFv detected after incubation with anti-Flag M2 murine mAb followed by FITC-anti mouse F(ab′)2. (A) scFv binding to human melanoma cells (M21: αvβ3 plus other αv integrins) (M21-LIIb: αIIbβ3, no αv integrins) or lung adenocarcinoma cells (UCLA-P3: αv integrins, no β3 integrin). (B) scFv binding to M21 melanoma cells. (C) scFv binding to variants of MDA-MB 435 human breast cancer cells that lack (β^3−) or express αvβ3 either in a non-activated (β3WT, ParentCo) or activated form (β3D723R, Bone, Lung, and BMS metastatic cancer cells isolated from breast cancer patient blood).\nFlow cytometry. scFv binding to human tumor cells was analyzed by flow cytometry, initially with cloned scFv phage and then with purified scFv protein. Per sample, 2×10^5 tumor cells were blocked with goat serum and incubated either with scFv phage (2-5×10^10) (1 h at RT) followed by mouse anti-M13 mAb (Serotec) (30 min on ice) and goat FITC-anti mouse (Pierce) (30 min on ice), or with purified scFv (1.25 to 40 μg/ml, routinely 10 to 15 μg/ml) (45 min on ice), followed by mouse anti-FLAG mAb M2 (Sigma) (30 min on ice) and goat FITC-anti mouse. Binding/washing buffer was TBS with or without divalent cations (1 mM Ca^2+, 1 mM Mg^2+, 0.2 mM Mn^2+). Alternatively, tumor cells were washed in 10 ml of plasma (prepared freshly from human blood anticoagulated with 50 nM D-Phe-D-Pro-D-arginyl chloromethyl ketone, PPACK, Felding-Habermann et al., J. Biol. Chem. 271: 5892-5900, 1996), resuspended in plasma and then incubated sequentially, without washing, with purified scFv (45 min on ice), followed by anti-FLAG M2 (30 min on ice) and FITC-anti mouse (30 min on ice). All samples were counter stained with propidium iodide (PI) and analyzed on a Becton-Dickinson FACScan, with live gate set to exclude PI positive cells.\nTo generate therapeutic reagents that specifically react with activated αvβ3, a phage display library of single chain antibody fragments (scFv) was exploited. This library was derived from cancer patient blood lymphocyte cDNA libraries and allowed us to test the hypothesis that the expressed immune repertoire contains antibodies that recognize integrin αvβ3, and distinguish between its activated and non-activated forms. Mao et al., Proc. Natl. Acad. Sci. U.S.A 96: 6953-6958, 1999. A subtractive panning approach was designed based on variants of MDA-MB 435 human breast cancer cells. […] Apparently, these cells are selected during metastasis, as variant cells isolated from lung and bone metastases in immune deficient mice express constitutively activated αvβ3. To establish a cell population that uniformly expresses non-activated αvβ3, MDA-MB 435 parental cells were cloned by limiting dilution, and clones tested for αvβ3 functionality. […] A cell line, MDA-MB 435 Lung-Lung, was established which expressed αvβ3 in a constitutively activated form. This variant stems from a lung metastase of an immune deficient mouse whose mammary fat pad had been injected with parental MDA-MB 435 cells. Felding-Habermann et al., Proc. Natl. Acad. Sci. U.S.A 98: 1853-1858, 2001; Rolli et al., Proc. Natl. Acad. Sci. U.S.A 100: 9482-9487, 2003. To enrich for the ability to colonize the lung from the blood stream, the Lung variant was subsequently injected intravenously, and tumor cells cultured 3 weeks later from the excised lung. Parent Combo cells were used to subtract the scFv phage library to eliminate antibodies against antigens shared by the MDA-MB 435 cell variants. […]"}}, "data": [{"molecule": "B1", "values": [{"measurement": "half maximal binding", "setting": "tumor cell integrin αvβ3", "result": 1, "unit": "µg/mL"}, {"measurement": "EC50", "setting": "tumor cell integrin αvβ3; read-out: half maximal binding", "result": 40, "unit": "nM"}, {"measurement": "binding in the presence of Mn2+", "setting": "integrin αvβ3; 0.2 mM Mn^2+", "result": "greatly enhanced"}, {"measurement": "binding in the presence of Mg2+", "setting": "integrin αvβ3; 1 mM Mg^2+, M21 cells", "result": "at the same level as Ca^2+"}, {"measurement": "effect of Ca2+ on Mn2+ enhanced binding", "setting": "integrin αvβ3; Ca^2+ combined with Mn^2+, M21 cells", "result": "reduced the enhancing effect of Mn^2+"}, {"measurement": "reactivity with human tumor cells that express or lack αvβ3", "setting": "integrin αvβ3; M21, M21-LIIb, UCLA-P3 cells, flow cytometry", "result": "reacted only with cells expressing the αvβ3 heterodimer"}, {"measurement": "binding to M21-L cells", "setting": "integrin αvβ3; M21-L cells (no αv integrins)", "result": "failed to bind"}, {"measurement": "cation requirement of binding", "setting": "integrin αvβ3; TBS with or without divalent cations", "result": "showed a cation dependence"}, {"measurement": "binding in the presence of Ca2+", "setting": "integrin αvβ3; physiological Ca^2+ levels (1 mM)", "result": "measurable"}, {"measurement": "reactivity with M21-L4 cells", "setting": "integrin αvβ3; αvβ3 expression restored by transfection", "result": "did react"}]}]}
